# “And” between values parts separate entries of the source, which are not always exact repeats. Identical values can stand only once. “Also recorded” adds a separate entry of the source. Not every detail of the peptide structures is certain; ends, links or a residue may be inferred. Some compounds share one wording; it may come from a single statement. Where a SMILES comes first, the peptide text is derived from it. [ ]: non-standard residue; d: D form.
# Assays:
# [1] = system: fibrin clot on human endothelial cells (HUVEC); assay: Fibrin clot lysis by D-dimer formation, fibrin gel on human endothelial cells; type: cell-based; conditions: for Clot lysis measured by D-dimer formation (%) (mean): control = 100%; for modulation of fibrinolysis (profibrinolytic or anti-fibrinolytic): values above or below 100% of control in D-dimer formation
# PAI-1 = PAI-1 (Homo sapiens, UniProt P05121); assay: Competition ELISA: binding of vitronectin onto immobilized activated PAI-1; set-up: purchased American Diagnostica, New York; conditions: for inhibition of binding of vitronectin to immobilized PAI-1: 25 μM peptide, equimolar comparison (FIGS. 3, 4); for peptide concentration achieving maximal inhibition of vitronectin binding to PAI-1: FIG. 5, concentration dependence; for binding to immobilized PAI-1 (effect on vitronectin binding): D-configuration peptides, 1-10 μM, FIG. 8
# Chain of PAI-1 (P05121 24-402): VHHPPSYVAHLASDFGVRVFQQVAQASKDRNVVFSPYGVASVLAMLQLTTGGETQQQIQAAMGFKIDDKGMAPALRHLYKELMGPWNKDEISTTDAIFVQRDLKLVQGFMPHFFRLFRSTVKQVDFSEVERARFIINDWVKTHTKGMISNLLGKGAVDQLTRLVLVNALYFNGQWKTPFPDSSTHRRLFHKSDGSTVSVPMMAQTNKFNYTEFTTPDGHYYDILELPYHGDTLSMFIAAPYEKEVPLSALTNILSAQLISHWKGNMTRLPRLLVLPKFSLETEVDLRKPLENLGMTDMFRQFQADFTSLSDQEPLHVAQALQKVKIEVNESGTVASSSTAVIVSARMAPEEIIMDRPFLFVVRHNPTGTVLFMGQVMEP
# Protocol: Protein concentration was determined by the method described by Bradford, 1976. The binding of vitronectin to immobilized PAI-1 was conducted as described by Salonen et al., 1989. The activation of PAI-1 by sodium dodecylsulfate was carried out as described by Katagiri et al., 1988. Amino acid sequencing was performed with an Applied Biosystem 475A sequencer.
# Each of the synthetic peptides shown in Scheme I and each of the peptides containing amino acids with a D configuration (BP7, BP8 and BP14) was tested by a competition ELISA assay for its ability to inhibit the binding of vitronectin to immobilized activated PAI-1. The first screening (FIGS. 3A-3D) was carried out with an identical molar concentration (25 μM) of the peptides. In view of a possible variability in such tests (mainly due to some variability in the activated PAI-1 coating of the plates), a control of vitronectin alone was run alongside in each plate for reference.
# The various synthetic peptides (all 50 μM) were dissolved in 50 μl of a buffer composed of PBS, Tween 20 (0.01%), polyethylene-glycol (average M.W. 8 kDa) (4% w/v). Each of the samples was added to a microtiter well coated with SDS-activated PAI, prepared as described by Katagiri et al., 1988. After an incubation of 30 min at 22° C., aliquots (50 μl) of a vitronectin solution (at various concentrations) in the same buffer were added to each well. This was followed by an incubation for 2 hrs at 37° C. The amount of bound vitronectin was determined with specific rabbit anti-human Vn antibodies (1:1000 dilution), followed by a β-galactosidase-linked protein A and using o-nitrophenyl-β-D-galactopyranoside (ONPG) as a substrate. The enzymatic reaction was allowed to proceed and the absorbance at 405+490 nm was measured. Each point in the graphs represents the mean of triplicate determinations. […]
# [2] = system: obstructed blood flow in rats; assay: Restoration of pulsatile blood pressure in rats with clogged arterial catheter; type: in vivo; conditions: rat with obstructed blood flow, 50 μg/kg intra-arterially, FIG. 10E
# [3] = system: plasma clot on human endothelial cells; assay: Plasma clot lysis by D-dimer formation on human endothelial cells (BP8); type: cell-based; conditions: citrated plasma clot on human endothelial cells, 6 hours, FIG. 9
# [4] = 1 × 10^-6 M peptide, added tPA -, 6 h
# [5] = 1 × 10^-8 M peptide, added tPA -, 6 h
# [6] = 1.5 × 10^-8 M peptide, added tPA +, 6 h
# [7] = 4.5 × 10^-6 M peptide, added tPA +, 6 h
# [8] = 4.5 × 10^-9 M peptide, added tPA +, 6 h
compound,measurement,setting,value
N=C(N)NCCC[C@H](NC(=O)[C@H](Cc1ccc(O)cc1)NC(=O)CNC(=O)[C@H](CCCCN)NC(=O)[C@H](CCCNC(=N)N)NC(=O)[C@H](CC(N)=O)NC(=O)[C@H](CCCNC(=N)N)NC(=O)[C@H](Cc1c[nH]cn1)NC(=O)[C@H](CCCNC(=N)N)NC(=O)[C@H](Cc1ccccc1)NC(=O)[C@H](CCCNC(=N)N)NC(=O)[C@H](CCC(N)=O)NC(=O)[C@H](CCCCN)NC(=O)[C@@H](N)CCCCN)C(=O)N[C@@H](CO)C(=O)N[C@@H](CCC(N)=O)C(=O)O [BP6] (H-KKQRFRHRNRKGYRSQ-OH),Clot lysis measured by D-dimer formation (%) (mean),"[1]; 1 × 10^-6 M peptide, added tPA +, 6 h",121%
same,Clot lysis measured by D-dimer formation (%) (mean),[1]; [4],187%
same,Clot lysis measured by D-dimer formation (%) (mean),[1]; [5],135%
same,Clot lysis measured by D-dimer formation (%) (mean),"[1]; 1 × 10^-9 M peptide, added tPA -, 6 h",152%
same,Clot lysis measured by D-dimer formation (%) (mean),"[1]; Table 4, 1 × 10^-5 M",145%
same,Clot lysis measured by D-dimer formation (%) (mean),"[1]; Table 4, 1 × 10^-6 M",162%
same,Clot lysis measured by D-dimer formation (%) (mean),"[1]; Table 4, 1 × 10^-7 M",120%
same,Clot lysis measured by D-dimer formation (%) (mean),"[1]; Table 4, 1 × 10^-8 M",168%
same,Clot lysis measured by D-dimer formation (%) (mean),"[1]; Table 4, 3.3 × 10^-7 M",163%
same,Clot lysis measured by D-dimer formation (%) (mean),"[1]; Table 4, 3.3 × 10^-8 M",147%
same,Clot lysis measured by D-dimer formation (%) (mean),"[1]; Table 4, 3.3 × 10^-9 M",125%
same,inhibition of binding of vitronectin to immobilized PAI-1,PAI-1,more efficient than BP5
same,peptide concentration achieving maximal inhibition of vitronectin binding to PAI-1,PAI-1,2.5 µM
same,peptide concentration at which maximal inhibition of PAI-1 binding was already achieved,"PAI-1; FIG. 6, small concentrations",0.1 μM and 0.15 μg/ml
same,fold lower concentration needed for same level of inhibition than BP4 and BP5,"PAI-1; FIG. 7, vitronectin 0.5 μg/ml",200-500 fold
N=C(N)NCCC[C@H](NC(=O)CNC(=O)[C@H](CCCNC(=N)N)NC(=O)[C@H](CO)NC(=O)[C@H](Cc1c[nH]cn1)NC(=O)CNC(=O)[C@H](CCCNC(=N)N)NC(=O)[C@H](CCC(N)=O)NC(=O)[C@@H](N)CO)C(=O)O [BP4-1] (H-SQRGHSRGR-OH),inhibition of binding of vitronectin to immobilized PAI-1,PAI-1,rather effective inhibitor
N=C(N)NCCC[C@@H](NC(=O)[C@@H](Cc1ccc(O)cc1)NC(=O)CNC(=O)[C@@H](CCCCN)NC(=O)[C@@H](CCCNC(=N)N)NC(=O)[C@@H](CC(N)=O)NC(=O)[C@@H](CCCNC(=N)N)NC(=O)[C@@H](Cc1c[nH]cn1)NC(=O)[C@@H](CCCNC(=N)N)NC(=O)[C@@H](Cc1ccccc1)NC(=O)[C@@H](CCCNC(=N)N)NC(=O)[C@@H](CCC(N)=O)NC(=O)[C@@H](CCCCN)NC(=O)[C@H](N)CCCCN)C(=O)N[C@H](CO)C(=O)N[C@H](CCC(N)=O)C(=O)O [BP8] (H-[dK][dK][dQ][dR][dF][dR][dH][dR][dN][dR][dK]G[dY][dR][dS][dQ]-OH),time after treatment at which pulsatile blood pressure is restored significantly,[2],18 min
same,binding to immobilized PAI-1 (effect on vitronectin binding),PAI-1,bind more strongly than BP7 and BP14
same,enhancement of fibrinolysis in comparison to control (D-dimer formation),[3],up to 2.5 fold
N=C(N)NCCC[C@H](NC(=O)CNC(=O)[C@H](CCCNC(=N)N)NC(=O)[C@H](CO)NC(=O)[C@H](Cc1c[nH]cn1)NC(=O)CNC(=O)[C@H](CCCNC(=N)N)NC(=O)[C@H](CCC(N)=O)NC(=O)[C@H](CO)NC(=O)[C@H](CCCNC(=N)N)NC(=O)[C@H](Cc1ccc(O)cc1)NC(=O)CNC(=O)[C@@H](N)CCCCN)C(=O)O [BP5] (H-KGYRSQRGHSRGR-OH),Clot lysis measured by D-dimer formation (%) (mean),[1]; [4],191%
same,Clot lysis measured by D-dimer formation (%) (mean),[1]; [5],183%
same,Clot lysis measured by D-dimer formation (%) (mean),[1]; [6],174%
same,Clot lysis measured by D-dimer formation (%) (mean),[1]; [7],132%
same,Clot lysis measured by D-dimer formation (%) (mean),"[1]; 4.5 × 10^-7 M peptide, added tPA +, 6 h",144%
same,Clot lysis measured by D-dimer formation (%) (mean),[1]; [8],183%
same,modulation of fibrinolysis (profibrinolytic or anti-fibrinolytic),[1],Profibrinolytic
same,inhibition of binding of vitronectin to immobilized PAI-1,PAI-1,more effective than BP4-1; also recorded: superior to BP4-1
same,peptide concentration achieving maximal inhibition of vitronectin binding to PAI-1,PAI-1,100 µM
C[C@H](NC(=O)[C@H](CCCNC(=N)N)NC(=O)[C@H](CO)NC(=O)[C@@H]1CCCN1C(=O)[C@H](CCCNC(=N)N)NC(=O)[C@H](CCCNC(=N)N)NC(=O)[C@H](CO)NC(=O)[C@H](CC(N)=O)NC(=O)[C@H](CCC(N)=O)NC(=O)[C@H](CC(N)=O)NC(=O)[C@H](CCCNC(=N)N)NC(=O)CNC(=O)[C@H](CCCNC(=N)N)NC(=O)[C@H](CO)NC(=O)[C@H](Cc1c[nH]cn1)NC(=O)CNC(=O)[C@H](CCCNC(=N)N)NC(=O)[C@H](CCC(N)=O)NC(=O)[C@@H](N)CO)C(=O)O [BP4] (H-SQRGHSRGRNQNSRRPSRA-OH),Clot lysis measured by D-dimer formation (%) (mean),[1]; [6],48%
same,Clot lysis measured by D-dimer formation (%) (mean),"[1]; 1.5 × 10^-9 M peptide, added tPA +, 6 h",76%
same,Clot lysis measured by D-dimer formation (%) (mean),[1]; [7],60%
same,Clot lysis measured by D-dimer formation (%) (mean),[1]; [8],57%
same,modulation of fibrinolysis (profibrinolytic or anti-fibrinolytic),[1],anti-fibrinolytic
same,inhibition of binding of vitronectin to immobilized PAI-1,PAI-1,inhibit to some extent
same,peptide concentration achieving maximal inhibition of vitronectin binding to PAI-1,PAI-1,25 µM
N=C(N)NCCC[C@@H](NC(=O)[C@H](N)CC(N)=O)C(=O)N[C@H](CCCCN)C(=O)NCC(=O)N[C@H](Cc1ccc(O)cc1)C(=O)N[C@H](CCCNC(=N)N)C(=O)N[C@H](CO)C(=O)N[C@H](CCC(N)=O)C(=O)O [BP14] (H-[dN][dR][dK]G[dY][dR][dS][dQ]-OH),binding to immobilized PAI-1 (effect on vitronectin binding),PAI-1,bind to immobilized PAI-1
C[C@H](NC(=O)[C@H](CCCNC(=N)N)NC(=O)[C@H](CO)NC(=O)[C@@H]1CCCN1C(=O)[C@H](CCCNC(=N)N)NC(=O)[C@H](CCCNC(=N)N)NC(=O)[C@H](CO)NC(=O)[C@H](CC(N)=O)NC(=O)[C@H](CCC(N)=O)NC(=O)[C@H](CC(N)=O)NC(=O)[C@H](CCCNC(=N)N)NC(=O)CN)C(=O)O [BP2] (H-GRNQNSRRPSRA-OH),inhibition of binding of vitronectin to immobilized PAI-1,PAI-1,inhibit to some extent
N=C(N)NCCC[C@H](NC(=O)[C@H](CO)NC(=O)[C@H](Cc1c[nH]cn1)NC(=O)CNC(=O)[C@H](CCCNC(=N)N)NC(=O)[C@H](CCC(N)=O)NC(=O)[C@@H](N)CO)C(=O)O [BP4-2] (H-SQRGHSR-OH),inhibition of binding of vitronectin to immobilized PAI-1,PAI-1,less effective inhibitor
C[C@H](NC(=O)[C@H](CCCNC(=N)N)NC(=O)[C@H](CO)NC(=O)[C@@H]1CCCN1C(=O)[C@H](CCCNC(=N)N)NC(=O)[C@H](CCCNC(=N)N)NC(=O)[C@H](CO)NC(=O)[C@H](CC(N)=O)NC(=O)[C@H](CCC(N)=O)NC(=O)[C@H](CC(N)=O)NC(=O)[C@H](CCCNC(=N)N)NC(=O)CNC(=O)[C@H](CCCNC(=N)N)NC(=O)[C@H](CO)NC(=O)[C@H](Cc1c[nH]cn1)NC(=O)CN)C(=O)O [BP3] (H-GHSRGRNQNSRRPSRA-OH),inhibition of binding of vitronectin to immobilized PAI-1,PAI-1,inhibit to some extent
C[C@H](NC(=O)[C@H](CCCNC(=N)N)NC(=O)[C@H](CO)NC(=O)[C@@H]1CCCN1C(=O)[C@H](CCCNC(=N)N)NC(=O)[C@H](CCCNC(=N)N)NC(=O)[C@H](CO)NC(=O)[C@H](CC(N)=O)NC(=O)[C@H](CCC(N)=O)NC(=O)[C@@H](N)CC(N)=O)C(=O)O [BP1] (H-NQNSRRPSRA-OH),inhibition of binding of vitronectin to immobilized PAI-1,PAI-1,"very minor inhibition, if any"

# Reference: patent publication US5491129A, “Synthetic peptides derived from vitronectin and pharmaceutical compositions comprising them” (Yeda Research and Development Co. Ltd., priority 1992, dated 1996)
